Assay results taken from PMC4336329 (PLoS ONE, 2015).
About 14,000 (4.5%) of roughly 310,000 compounds showed an effect of 50% or more. The effect is printed as a negative number. The list shows a part of the results.

biological target: human ether-à-go-go-related gene (hERG) potassium channel (human, UniProt Q12809); assay: primary screen, population patch clamp on CHO cells stably expressing hERG
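Further: peak tail current of the secondary pulse compared with the same well before compound.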

human ether-à-go-go-related gene (hERG) potassium channel, sequence (Q12809 whole entry, looked up): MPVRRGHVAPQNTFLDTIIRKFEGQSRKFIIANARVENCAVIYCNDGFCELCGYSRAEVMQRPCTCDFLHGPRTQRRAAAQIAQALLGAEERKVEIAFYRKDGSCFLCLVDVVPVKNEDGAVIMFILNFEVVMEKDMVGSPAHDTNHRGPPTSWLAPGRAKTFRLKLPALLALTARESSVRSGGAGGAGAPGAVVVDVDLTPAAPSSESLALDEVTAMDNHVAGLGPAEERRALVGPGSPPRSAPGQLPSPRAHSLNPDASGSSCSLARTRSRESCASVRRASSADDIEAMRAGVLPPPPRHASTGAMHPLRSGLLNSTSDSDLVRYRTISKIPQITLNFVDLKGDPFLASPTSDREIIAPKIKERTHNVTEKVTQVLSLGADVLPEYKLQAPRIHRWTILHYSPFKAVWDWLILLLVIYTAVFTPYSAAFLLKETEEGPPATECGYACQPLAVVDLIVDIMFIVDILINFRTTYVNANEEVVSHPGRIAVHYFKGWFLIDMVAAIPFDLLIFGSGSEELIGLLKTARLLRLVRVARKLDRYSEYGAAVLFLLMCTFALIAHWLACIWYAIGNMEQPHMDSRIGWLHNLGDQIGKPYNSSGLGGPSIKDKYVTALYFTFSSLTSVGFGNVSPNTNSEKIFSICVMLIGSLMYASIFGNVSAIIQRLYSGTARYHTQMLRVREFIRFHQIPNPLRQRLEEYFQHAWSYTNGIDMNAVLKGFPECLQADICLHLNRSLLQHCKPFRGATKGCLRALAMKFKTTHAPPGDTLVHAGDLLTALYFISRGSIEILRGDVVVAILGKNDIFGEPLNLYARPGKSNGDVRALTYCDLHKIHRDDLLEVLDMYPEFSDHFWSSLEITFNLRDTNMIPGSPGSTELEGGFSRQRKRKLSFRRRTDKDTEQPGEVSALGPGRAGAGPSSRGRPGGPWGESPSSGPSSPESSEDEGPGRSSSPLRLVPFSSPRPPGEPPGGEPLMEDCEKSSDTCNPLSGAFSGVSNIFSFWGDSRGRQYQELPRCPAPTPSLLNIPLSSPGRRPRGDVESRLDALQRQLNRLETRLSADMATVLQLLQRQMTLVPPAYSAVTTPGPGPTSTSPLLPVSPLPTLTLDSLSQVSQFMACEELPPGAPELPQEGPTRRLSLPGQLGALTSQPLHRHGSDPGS

Point of comparison: Cc1cnc(C(=O)Oc2ccc(-c3ccccc3)cc2)cn1, “hERG current change (%, negative = inhibition) at 10uM” value 16.8%. Against it:
- CN(C)S(=O)(=O)c1cccc(NC(=S)NC23CC4CC(CC(C4)C2)C3)c1 — lower, 6.29%
- COc1ccc(/C=C/C(=O)O/N=C(\N)c2ccccc2)cc1OC — lower, -17.3%
- CCN(CC)C(=O)Oc1ccc(Br)cc1C(=O)Nc1ccc(F)c(Cl)c1 — lower, 2.76%
- Cc1ccc(CS(=O)(=O)CCC(=O)NCc2cccs2)cc1 — lower, -10%
- O=C(N/N=C/C=C/c1ccco1)c1cccnc1 — lower, 4.64%
- Cc1ccc(C(C(=O)NC2CCCCC2)N(C(=O)c2csnn2)C2CC2)cc1 (centres unmarked) — lower, -9.75%
- CCCCCN(C(=O)CCC(=O)OCC(=O)N(C)C1CCCCC1)c1c(N)n(CCCC)c(=O)[nH]c1=O — lower, -0.0368%
- Cc1ccc(N(C(=O)CCC(=O)Nc2nccs2)C(C(=O)NC(C)(C)C)c2ccc(O)cc2)cc1 (centres unmarked) — lower, 15.3%
- COc1ccccc1NS(=O)(=O)c1cccc(C(=O)NN)c1 — lower, -5.56%
- CCCOc1ccc(C(=O)NCCO)cc1 — lower, 11.7%
- O=C(O)C(c1ccccc1)N1C(=O)/C(=C\c2ccc(-c3ccccc3Cl)o2)SC1=S (centres unmarked) — lower, 11.1%
- COCCCNS(=O)(=O)c1ccc(Cl)c(C(F)(F)F)c1 — lower, -8.69%
- CCCn1c(SCC(=O)Nc2cccc(S(=O)(=O)N(C)C)c2)nc2ccccc2c1=O — lower, -39.3%
- CC(C)c1ccc(NC(=O)C(c2ccc3c(c2)OCO3)N2CCN(C(=O)c3ccco3)CC2)cc1 (centres unmarked) — lower, -25%
- O=C(Cc1ccc(Cl)cc1Cl)Nc1ccc(OC(F)F)c(Cl)c1 — lower, 8%
- CCCCCCCCN=C1NC(=O)CS1 — lower, -3.06%
- Cc1cc(C)c(C#N)c(SCC(=O)OC2CCCCC2)n1 — lower, 9.27%
- CC(=O)c1ccc(N2CCN(C(=O)c3ccc4ccccc4n3)CC2)cc1 — lower, -43.1%
- COC(=O)C(O)(c1ccc(NC(=O)c2ccco2)c(OC)c1)C(F)(F)F (centres unmarked) — lower, -6.24%
- O=C(NCCc1csc(-c2cccnc2)n1)c1cccc2ccccc12 — lower, -14.9%
- O=C(N/N=C(\c1ccccc1)c1cccnc1)C(O)(c1ccccc1)c1ccccc1 — lower, -46.6%
- O=C(Nc1nccs1)C1CCN(S(=O)(=O)c2cccnc2)CC1 — lower, -8.55%
- Cc1ccccc1CCNC(=O)C1CCCN(c2cnccn2)C1 (centres unmarked) — lower, -0.76%
- O=C(OCCN1C(=O)c2ccccc2C1=O)c1cc(S(=O)(=O)N2CCOCC2)ccc1Cl — lower, -22.5%
- CN(C)N=Nc1ccc(S(=O)(=O)/N=C(\[O-])c2ccccc2)cc1.[K+] — lower, 14.6%
- COc1ccc(/C=C2\CCCC3C2=NN(C(=O)c2scnc2C)C3c2ccc(OC)c(OC)c2)cc1OC (centres unmarked) — lower, 10.6%
- N#Cc1ccccc1NC(=O)CNc1ccc(Cl)c(C(F)(F)F)c1 — lower, -5.09%
- N#Cc1c(NC(=O)CSc2n[nH]c(N)n2)oc(-c2ccccc2)c1-c1ccccc1 — lower, -12.7%
- O=C1Nc2ccc(Cl)cc2C(=O)C1(F)c1ccccc1 (centres unmarked) — lower, -4.92%
- C=CCOc1ccc2oc(=O)cc(C)c2c1 — lower, -1.62%
- COc1ccc(CCNC(=O)c2cc(-c3cccs3)on2)cc1OC — lower, -0.839%
- CC(C)N1C(=O)C2C(c3ccccc3O)NC(C)(C(=O)O)C2C1=O (centres unmarked) — lower, -1.22%
- O=C(OCCOc1ccccc1)c1cc(S(=O)(=O)N2CCOCC2)ccc1Cl — lower, -15.6%
- CC(C)OC(=O)CSc1nc2c(c(C3CC=CCC3)c1C#N)CCC2 (centres unmarked) — lower, 7.7%
- COc1ccc2cc(C3CC(c4ccco4)=NN3C(=O)CCC(=O)O)c(Cl)nc2c1 (centres unmarked) — higher, 18.9%
- CC#CCN1c2ccccc2[C@]23C[C@@H](C(=O)OC)N(C(=O)NC(C)(C)C)C2=NC(C(=O)OC)=C(C(=O)OC)[C@H]13 — higher, 17.3%
- O=C(Nc1ccc(-c2csc(-c3ccccc3)n2)cc1)c1ccccc1 — higher, 16.9%
- CCCN1C(=O)C2(OCCO2)c2cc(Cl)ccc21 — lower, 15.3%
- O=C(COC(=O)/C=C/c1cccc(Br)c1)NC1CC1 — lower, -2.84%
- O=C(N/N=C/c1ccc(OC(=O)c2cccc(Br)c2)cc1)c1cccnc1 — lower, 11.4%
- O=C(CSc1ccc(-c2ccco2)nn1)NCc1ccc(F)cc1 — lower, -21.2%
- COc1ccc(CC(=O)Nc2sc(Cc3ccccc3)c(C)c2C(N)=O)cc1 — lower, -5.13%
- O=C(NC1CCCCC1)C(c1ccc2ncccc2c1)N(Cc1ccco1)C(=O)c1ccc2c(c1)OCCO2 (centres unmarked) — lower, -45.1%
- Cc1cccc(CC2CC(=O)N(c3nc4ccccc4s3)C2=O)c1 (centres unmarked) — lower, 11.4%
- Cc1onc(C(=O)N2CCC(Cc3ccccc3)CC2)c1[N+](=O)[O-] — lower, 5.61%
- O=c1oc2cc(Oc3ccc(C(F)(F)F)cc3[N+](=O)[O-])ccc2c2c1CCCC2 — lower, 0.417%
- Cn1cccc1/C=N/NC(=O)c1ccc(OC(F)(F)C(F)F)cc1 — lower, -3.78%
- CCOC(=O)N1CCC(N(C(=O)Nc2ccccc2)C(C)CC)CC1 (centres unmarked) — lower, -1.48%
- Cc1n[nH]c(C)c1CN(C)C(=O)C1CCC(=O)N(CC2CCCCC2)C1 (centres unmarked) — lower, 2.14%
- O=S(=O)(Nc1ccccn1)c1ccc(Oc2ccccc2)cc1 — lower, -37.5%
- CN(C)S(=O)(=O)c1ccc(C(=O)NCc2ccco2)cc1 — lower, 1.98%
- COCCn1c(=NC(=O)CCS(=O)(=O)c2ccccc2)sc2cc(C(=O)OC)ccc21 — lower, 14.5%
- CCOc1cccc(C(=O)Nc2nnc(-c3ccco3)s2)c1 — lower, -2.82%
- O=c1oc2ccccc2n1Cc1ccccc1F — lower, 7.76%
- O=C(CC1C(=O)NCCN1Cc1ccccc1C(F)(F)F)NCCc1ccccn1 (centres unmarked) — lower, 9.92%
- CN(c1ccc(C(=O)NCCSC(C)(C)C)cc1)S(C)(=O)=O — lower, 5.55%
- COc1ccccc1OC(C)C(=O)NNC(=S)NC1CCCC1 (centres unmarked) — lower, 7.59%
- COc1cc(/C=N/N(C)C)cc(Br)c1O.O=P(O)(O)O — higher, 22.9%
- CC(=O)Nc1ccc(S(=O)(=O)N(C)CC(=O)N/N=C/c2ccc(C(=O)O)cc2)cc1 — higher, 23.7%
- Cc1csc(NC(=O)CCc2c(C)nc3cc(-c4cccc(F)c4)nn3c2C)n1 — lower, -17.3%
- CNC(=O)c1c(NC(=O)c2cccc(N3C(=O)CCC3=O)c2)sc2c1CCC2 — lower, 11.4%
- CCOc1ccc(N2C(=O)Nc3ccccc3C2(O)C(=O)NCc2ccc(C)cc2)cc1 (centres unmarked) — higher, 19.6%
- CCOC(=O)C(CC(=O)O)=C(c1ccccc1)c1ccccc1 — higher, 17.9%
- O=c1[nH]nc(Cc2ccc3ccccc3n2)c2ccccc12 — lower, 1.36%
- COc1ccc(C(C(=O)NC2CCCCC2)N(CC2CCCO2)C(=O)C2COc3ccccc3O2)cc1OC (centres unmarked) — lower, -4.43%
- O=C(CSc1nc2ccccc2c(=O)n1NC(=O)c1ccccc1)c1ccccc1 — lower, -1.72%
- CCc1ccccc1NC(=O)C1CCCN(S(=O)(=O)c2ccc3c(c2)CC(C)N3C(C)=O)C1 (centres unmarked) — lower, -9.94%
- CS(=O)(=O)N(CCc1ccccc1)CC(N)=O — lower, 1.17%
- COC(=O)c1c(NS(=O)(=O)c2ccccc2)csc1C — lower, 13.3%
- COc1ccc(-c2nc(SC)n(C(=O)c3ccco3)n2)cc1 — lower, 13.7%
- Br.COc1ccc(-c2csc(NNC3=NCCCCC3)n2)cc1 — lower, -0.127%
- O=C(CN1C(=O)C2C3C=CC(C3)C2C1=O)Nc1ccc2nccnc2c1 (centres unmarked) — lower, 13.7%
- CCC(C)NC(=O)CN1C(=O)c2cccc3cccc1c23 (centres unmarked) — lower, 3.14%
- O=C(O)CC/C(=N\NC(=O)c1ccncc1)c1ccccc1 — higher, 21.9%
- CCn1c(CNC(=O)c2ccccc2Cl)cc2ccccc21 — higher, 17%
- COc1cc(OC)cc(C(=O)NCCN2CCOCC2)c1.O=C(O)C(=O)O — lower, 8.94%
- CCOC(=O)CNC(=O)CSc1ccc2nnc(-c3ccc(F)cc3)n2n1 — lower, -5.55%
- Cc1c(C(=O)O)sc(=S)n1-c1ccc(Cl)cc1 — lower, -9.29%
- COc1cc2[nH]c(C(=O)NCc3ccccc3)cc2c(OC)c1OC.Cl — lower, 13.1%
- Cn1c(=O)[nH]c(=O)c2c1nc1n2CCCN1CCc1ccccc1 — lower, -10.4%
- Cc1ccc(CN(CC(=O)NCc2ccc3c(c2)OCO3)C(=O)c2csnn2)cc1 — lower, -50.5%
- CN(C)c1nc(OCCNC(=O)COc2ccc(Cl)cc2Cl)nc(N2CCCCC2)n1 — lower, 8.22%
- FC(F)(F)c1ccc(CNCCc2ccc3c(c2)OCO3)cc1.O=C(O)C(=O)O — lower, -60.3%
- Cc1ccccc1C(=O)c1cccn1CC(=O)O — lower, 14.1%
- C=CCn1c(SCC(=O)Nc2cc(NC(C)=O)ccc2OC)nnc1-c1cccnc1 — lower, 2.09%
